# Source: the supplement of paper PMC3334620
# Over roughly 33,000 sequences, “E-score (-0.5 to 0.5)” has its median near -0.041; the highest 2% begin near 0.37. The list shows a part of the results.
# Biological target: T1, Ecm22 (UniProt Q05958)
# T1 sequence: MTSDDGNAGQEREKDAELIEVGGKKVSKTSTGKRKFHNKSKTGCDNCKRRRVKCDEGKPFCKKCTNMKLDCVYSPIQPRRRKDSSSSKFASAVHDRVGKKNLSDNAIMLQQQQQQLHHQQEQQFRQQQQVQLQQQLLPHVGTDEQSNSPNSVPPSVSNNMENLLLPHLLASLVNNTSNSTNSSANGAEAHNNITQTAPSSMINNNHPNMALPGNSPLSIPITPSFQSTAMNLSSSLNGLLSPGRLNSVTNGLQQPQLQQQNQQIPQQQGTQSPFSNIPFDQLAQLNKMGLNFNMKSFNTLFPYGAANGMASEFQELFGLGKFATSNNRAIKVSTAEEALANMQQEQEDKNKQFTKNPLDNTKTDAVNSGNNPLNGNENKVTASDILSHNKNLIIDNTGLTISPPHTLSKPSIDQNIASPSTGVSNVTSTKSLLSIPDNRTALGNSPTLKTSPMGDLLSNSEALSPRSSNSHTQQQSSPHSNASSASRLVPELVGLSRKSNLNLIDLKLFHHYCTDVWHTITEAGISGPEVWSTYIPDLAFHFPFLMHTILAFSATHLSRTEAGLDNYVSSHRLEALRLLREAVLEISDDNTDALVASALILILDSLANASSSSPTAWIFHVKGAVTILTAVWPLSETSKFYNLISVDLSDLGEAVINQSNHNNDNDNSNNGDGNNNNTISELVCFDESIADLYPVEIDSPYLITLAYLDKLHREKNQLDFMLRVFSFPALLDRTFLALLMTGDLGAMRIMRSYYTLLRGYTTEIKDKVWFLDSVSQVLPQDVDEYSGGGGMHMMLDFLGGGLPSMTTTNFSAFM
# Assay: PBM E-score (8-mer binding enrichment) (E-score (-0.5 to 0.5)); higher = stronger / more preferred TF binding; most listed sequences are background and not binding sites
# Conditions: protein concentration: 200 nM; construct: GST-full length
# Method in brief: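 Universal all-10-mer Agilent arrays, fresh or stripped once, were converted to double-stranded form by primer extension. GST-tagged yeast transcription factors from PURExpress in vitro transcription/translation, full-length or DNA-binding domain only, were applied at about 100-200 nM and detected with fluorescent anti-GST. After masliner normalisation, the Universal PBM Analysis Suite scored each ungapped eight-base word together with its reverse complement by E-score.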
row,Sequence,PBM E-score
1,AACACAGC,0.167
2,CGGCTTGC,-0.0173
3,CCACTCCC,-0.00522
4,ATCTATAC,0.237
5,CATATCGA,-0.0294
6,CAGGCGGC,-0.114
7,GGTTGGGA,-0.0974
8,CTCAACAC,0.0118
9,ACTTGTGA,-0.174
10,AAGGTATG,-0.0619
11,ATTCGAGA,0.00532
12,CTCCCGCA,0.0888
13,GACATCAA,-0.0459
14,GGTAGTAC,0.1
15,ACCCACCC,-0.148
16,TGAAAACA,-0.105
17,AGAAAGCA,0.0204
18,AACACAAG,-0.179
19,GCCCGAAC,0.107
20,ACTCCGTC,0.106
21,CCTCAACC,-0.0769
22,AGCTAGCC,-0.164
23,AAGTGGGA,-0.0267
24,CTCTCGGC,-0.117
25,GGAAGGAA,-0.023

row,Sequence,PBM E-score
1,AGTCCCTC,-0.191
2,AAGCCTGA,-0.248
3,GTACTAGA,0.148
4,CGCGGTCA,-0.126
5,ACTTACAG,-0.00651
6,ACATCGGG,-0.0909
7,GAACCTAC,0.0124
8,ACTTAGTA,0.0607
9,GCCGCAAC,0.0256
10,ATACAGAG,-0.0254
11,AGTACGTG,0.142
12,ATCAACGC,0.0236
13,GGTGCCCA,-0.191
14,GCTGACAA,-0.168
15,AAAATCCC,-0.156
16,CTTGCAAC,-0.0385
17,GATAGCGA,0.0746
18,CCTGTGCC,-0.117
19,CTGGTCCA,-0.135
20,ATACCGCA,0.0296
21,CTCAGGCA,-0.1
22,AGAAGAAG,-0.0806
23,CCAGCTAG,-0.105
24,ATACAGGG,-0.0486
25,CTCTACTA,-0.0921

row,Sequence,PBM E-score
1,CAGTCTCG,0.0311
2,ATACGCGA,0.345
3,CCGATGCA,0.0235
4,AATACGAT,0.384
5,CCGGATCA,-0.0894
6,GTTGGCGA,0.104
7,AAAGAGGG,-0.0291
8,CTGCCATA,0.0699
9,AGCGCTAC,-0.00179
10,TGGATCCA,-0.0833
11,GGCGAAAC,0.0251
12,GTAGATGA,0.0274
13,GATCCCAC,-0.0724
14,ATTTGCGC,0.0384
15,AGTGTTAT,-0.0953
16,AATCTTAG,-0.166
17,ATGATCCA,-0.19
18,ACTACGTA,0.211
19,ACACCATA,0.0278
20,CCCATCTA,-0.247
21,AGCATATC,-0.0534
22,GCGTTTGA,0.0263
23,AATATTGT,-0.0139
24,AATCTAAC,0.00451
25,TAACCATA,-0.0509

row,Sequence,PBM E-score
1,AATTCGCC,-0.0198
2,GCGGGCAA,0.0284
3,ATAGCTGC,-0.11
4,CTACGTGA,-0.0188
5,CCCGAGAG,-0.00661
6,CCCAACTA,-0.0623
7,CTAAGTCA,-0.17
8,GGTTGGCA,-0.0499
9,CATTCGTC,0.112
10,TCTAGGAA,-0.0513
11,GAGAAAGA,-0.0939
12,GACTGAAA,0.0006
13,AGCCATCA,-0.0177
14,CGAAAACC,0.228
15,CGTTAACC,0.284
16,AATATTAT,0.0325
17,GAACAGCC,-0.0804
18,ACATTCGG,0.0251
19,AGAGTCAC,-0.192
20,ACTAGTAA,-0.181
21,CACTTGGA,0.00049
22,CAGGTAGG,-0.25
23,AGATACTA,-0.17
24,AGGCCCTA,-0.275
25,GAGCAAAA,-0.104

row,Sequence,PBM E-score
1,ATCCAGGA,-0.279
2,CACTACGC,-0.27
3,TGACTACA,-0.0398
4,AACCATAC,0.141
5,CTCCCTCC,-0.261
6,CAACTGCG,0.0233
7,AGGGGTGG,-0.0647
8,GATCAAGC,0.148
9,CAAGACTG,-0.259
10,CATCCGTA,0.327
11,CCGCCAAG,-0.193
12,CACACGTG,-0.154
13,GAGCACCA,-0.0179
14,ACAAGACG,-0.147
15,CGCCTGGC,-0.243
16,AGAAACTG,0.0432
17,CTCCTGCC,-0.203
18,GGCAATAA,-0.0967
19,CGAACTGC,0.119
20,CGACTTAA,-0.0319
21,TGTCGAAA,-0.0809
22,ATCTAGTG,-0.0611
23,AGTAAGGG,-0.25
24,GGTGGAGA,-0.15
25,CAATAGTG,-0.175

row,Sequence,PBM E-score
1,CAGATTGA,-0.181
2,CTGGTGAC,-0.157
3,GGAAAGCA,0.0846
4,GGCTCGCA,0.186
5,ACCCTGCC,-0.229
6,ATTGGAAG,-0.182
7,GCACAATA,-0.106
8,ATGTATCC,-0.11
9,GATGCGAA,0.271
10,CCGATTTA,0.0303
11,ACCTAAGA,0.0205
12,ATACCATG,0.0669
13,ACAAATCT,0.0933
14,AGGAATAA,-0.0874
15,GACGCCAA,-0.0883
16,AACGACAG,0.412
17,GAAGAGTA,-0.0021
18,CGGGAACA,0.165
19,CCAAGCTA,-0.182
20,AAATAGAG,-0.0589
21,CTCGGCAC,0.127
22,ACGTGTGG,-0.0452
23,CGTTCTGC,0.197
24,AAGGCTAC,-0.0731
25,AGTTGTGG,-0.00657

row,Sequence,PBM E-score
1,ACCAAGCC,-0.176
2,CCCAGAAA,-0.0859
3,GGGCAAAC,-0.0112
4,TAGCCGGA,0.0365
5,CCAACATC,-0.00898
6,AAACGAGC,0.482
7,ACACGTCT,-0.264
8,CTTGTACA,-0.0719
9,ATTCACCA,-0.162
10,CTACACCA,-0.128
11,AGTTTAAT,-0.052
12,TCTTGGCA,-0.102
13,AATCTAAG,0.0188
14,AAACCGCT,-0.0228
15,ACATGGTC,-0.0913
16,CCTGAGCC,-0.311
17,GCTCGTTA,0.373
18,ATATTAAC,0.18
19,ATAACAAC,0.0333
20,CTCGGACA,0.246
21,CTCTGCCA,-0.183
22,GCATACCC,-0.137
